Data reported in the RNAGym collection of RNA variant scans (doi:10.7554/elife.90254).
The source gives no read counts; variants with many changes may rest on few reads.

B1: LINE1-mini (parent)
chain: GGCAGAGCUCAACACAGCGUGGCAAAGUGGCUGUGGCUAGACUGCC

Variants of: B1
Experiment: self-cleavage, relative activity (ratio to wild type); higher = more cleavage; in vitro, sequencing; the parent is a self-cleaving ribozyme
For C10U U20G U32G, the self-cleavage was 0.03.
For A11C C18G G19C, the self-cleavage was 0.01.
C10U G17C A24C C31G G36A C37U U38A C42G gave a self-cleavage of 0.
Variant A11C U20G G33C A39C has a self-cleavage of 0.
For A11C G27A U34A, the self-cleavage was 0.
A11C A24U C45A gave a self-cleavage of 0.
Work on A11C A41U U43A C45A yielded a self-cleavage of 0.01.
In the case of C10U G27A G40C C42G, the self-cleavage is reported as 0.03.
For C10U G21U C23A, the self-cleavage was 0.18.
For A11C G21A C23A G36C, the self-cleavage was 0.01.
In the case of A11C A12G C15A C31A, the self-cleavage is reported as 0.
A11C G22C C42U gave a self-cleavage of 0.
C10U G19A A26U showed a self-cleavage of 0.98.
A11C C15U C46A showed a self-cleavage of 0.
With C10U G33C G40C the self-cleavage was 0.04.
A11C G22U G35U C46A showed a self-cleavage of 0.
Variant A11C A14U C37G C45A has a self-cleavage of 0.02.
Variant A11C A12C A26U C37G C42A has a self-cleavage of 0.
In the case of A11C U32A U38C A41G, the self-cleavage is reported as 0.01.
Variant C10U G19A A25G G30C A41C C46G has a self-cleavage of 0.02.
Work on C10U G21U G35A G40C U43G yielded a self-cleavage of 0.01.
With A11C G22A A25U U28C the self-cleavage was 0.1.
For C10U G19U A25C U28C U32C G40U, the self-cleavage was 0.02.
A11C G19U G29C C46G gave a self-cleavage of 0.14.
Variant A11C A14U C15G G35U has a self-cleavage of 0.02.
Work on A11C A16U G19U G27A G29U U32G yielded a self-cleavage of 0.04.
Work on A11C A16C U20C G27A U28G yielded a self-cleavage of 0.02.
With A11C G30A C46U the self-cleavage was 0.03.
In the case of A11C C15A A16U C23A A24C G30U, the self-cleavage is reported as 0.01.
C10U G17C A25C C31A showed a self-cleavage of 0.25.
A11C A24C U38A gave a self-cleavage of 0.03.
C10U C23G G40A gave a self-cleavage of 0.
For A11C G33A U34C, the self-cleavage was 0.01.
Work on A11C C23U G36C yielded a self-cleavage of 0.01.
For A11C C18U A26C U43A, the self-cleavage was 0.02.
Work on A11C G17U C18G yielded a self-cleavage of 0.05.
Work on A11C A12C U28G U32A yielded a self-cleavage of 0.01.
In the case of C10U G36U U38G, the self-cleavage is reported as 0.01.
A11C A12C G35U G40U showed a self-cleavage of 0.
Variant A11C C18G G36U has a self-cleavage of 0.01.
A11C A16C U20A G29U U32A G35C C46U showed a self-cleavage of 0.
With C10U G17C A25C U34C the self-cleavage was 0.03.
Work on C10U G19C C31G yielded a self-cleavage of 0.07.
In the case of A11C G21C U28G C46A, the self-cleavage is reported as 0.01.
A11C A16C G29C C37G U43C showed a self-cleavage of 0.
A11C G30C G36U showed a self-cleavage of 0.01.
Work on A11C C18A U20C C23G C46U yielded a self-cleavage of 0.01.
For A11C C18U G22U, the self-cleavage was 0.21.
In the case of A11C C23A A26U C37G, the self-cleavage is reported as 0.
A11C C15A G19A showed a self-cleavage of 0.02.
A11C C18A C37G showed a self-cleavage of 0.01.
Variant A11C G40U C46G has a self-cleavage of 0.
With C10U G22A A26U C37U G44U the self-cleavage was 0.02.
Work on C10U G21A C23U G40C yielded a self-cleavage of 0.01.
In the case of A11C G29U G30U G40A A41U, the self-cleavage is reported as 0.01.
For A11C G17U C18U G29A, the self-cleavage was 0.
Work on A11C G19C A25U yielded a self-cleavage of 0.03.
C10U G17C G21C C23A gave a self-cleavage of 0.33.
Work on C10U C45A C46U yielded a self-cleavage of 0.08.
A11C A14C G21A G22A C46G showed a self-cleavage of 0.02.
A11C C13U A14G C18A U20G U38G showed a self-cleavage of 0.02.
Variant A11C A16G C18A G21C has a self-cleavage of 0.03.
In the case of C10U C18G C23A U28A, the self-cleavage is reported as 0.13.
C10U G21C G22A U32G G35U A39U gave a self-cleavage of 0.02.
A11C C15U G19A G27C U32C G33A showed a self-cleavage of 0.03.
In the case of C10U C18G U34C A41G, the self-cleavage is reported as 0.08.
For A11C G35U A39C, the self-cleavage was 0.01.
A11C C18U G27A G40C showed a self-cleavage of 0.02.
A11C A14C C46A showed a self-cleavage of 0.02.
For C10U U20A G21C C42U, the self-cleavage was 0.03.
Work on A11C U32G U43C yielded a self-cleavage of 0.
C10U C31A C37U C46A gave a self-cleavage of 0.
C10U G21C G35U G44A gave a self-cleavage of 0.03.
C10U G29U A41U C46A gave a self-cleavage of 0.03.
With A11C G22A A25G G44U the self-cleavage was 0.01.
Variant C10U G27A C46G has a self-cleavage of 0.06.
With A11C U28G G29U the self-cleavage was 0.05.
A11C C31G U38G showed a self-cleavage of 0.
Work on C10U G21C A26U A41U yielded a self-cleavage of 0.04.
Work on C10U U38G C46A yielded a self-cleavage of 0.04.
With A11C C23A A41U G44U the self-cleavage was 0.
With C10U U20G G30U C31U the self-cleavage was 0.11.
In the case of C10U C37G C45G, the self-cleavage is reported as 0.02.
